The chains are these.
B1: CPEB3 Ribozyme (parent)
chain: UAACAGGGGGCCACAGCAGAAGCGUUCACGUCGCAGCCCCUGUCAGAUUCUGGUGAAUCUGCGAAUUCUGCUGUAUAUCUC

The source gives no read counts; variants with many changes may rest on few reads.

The series covers variants of B1. The experiment in a line: self-cleavage, relative activity (ratio to wild type); higher = more cleavage; in vitro, sequencing. In a few lines: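 For each CPEB3 ribozyme variant, relative activity is its cleaved/total read fraction divided by the unmutated ribozyme's. Barcoded error-prone PCR libraries were transcribed by T7 RNA polymerase (5 hours, 37°C) and held in DNase I for 15 min before an EDTA stop, with cleavage occurring throughout. Template-switching reverse transcription and Illumina sequencing were used to read the RNAs. A 5-read minimum applied, and results are the mean of three batches.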
On to UAACAGGGGGGCACAGCAGGAGCGUUCCCGUCGCAGCCCCUGACAGAUUCUGGCGAAUCCGCGAAUUCAGCUGUAUAUCUC, for which the self-cleavage turned out to be 0.03.

With UAACAGGGGGGCACAGCAGAAGCGUUCACGUCGCAGCCCCUGUCAGAUUCUGGUGGAUCCGCGAAUUCAGCUGUAUAUCUC, the self-cleavage stood at 0.1.

Regarding UAACAGGGGGGCACAGCGGAAGCGUUCUCGUCGCUGCCCCUGUCAGAUUCUGGUGAAUCUGCGAAUUCUGCAGUAUACCUC, the self-cleavage was found to be 0.04.

For the variant UAACAGGGGGGCACAGCAGAGGCGUUCACUUCGCAGCCCCUGUCAGAUUCUGGUGAAUCUGCGAAUUCUGCUGUAUAUCUC, the self-cleavage is 0.19.

Take UAACAGGGGGGCACAGCAGAAGCGUUCACGUCGCUGCCCCUGUCAGAUUCUGGUGAAUCUGCAAGUUCUGCUGUAUAUCUC: the self-cleavage stood at 0.04.

Consider UAACAGGGGGGCACAGCAGAAGCGUUCACGUCGCAGCCCCUGUCAGAUUCUGGUGAUGCUGCGAAUUAUGCUGUAUAUCUC, for which the self-cleavage amounted to 0.04.

In the case of UAACAGGGGGGCACUGCAGAAGCGUUCACGUCGCAGCCUCUGACAGAUUCUGGUGAAUCUGCGAAUUCUGCUGUAUAUCUC, the self-cleavage is 0.45.

With UAACAGGGGGGCACAGCAGAAGCGUUCACGUCGCAGCCCCUGUCAGGUUCUGGUGAAUCUGCGAAUUCUGCUGUAUAUCCC, the self-cleavage amounted to 0.46.

Turning to UAACAGGGGGGCACAGCAGAGGCGUUCACGUCGCAGCCCCUGUCAGAUCCUGGUGAAUCUGCGAAUUCUGCUGUAUAUCUC, the self-cleavage is 0.33.

In the case of UAACAGGGGGGCUCAGCAGAAGCGUUCACGUCGCAGCCCCUGUCAGAUUCUGGCGUAUCUGCGAAUUCAGCUGCAUAUCUC, the self-cleavage is 0.13.

Consider UAACAGGGGGGCACAGCGGAAGCGUUCACGUCGCAGCCCCUGUCAGAUUCUCGUGAAUCUGCGAAUUCUGCAGUACAUCUC, for which the self-cleavage was found to be 0.13.

UAACAGGGGGGAACAGCUGAAGCGUUCACGUCGCAGCCCCUGUCGGAUUCUGGUGAAUCUGCGAAUCCUGCUGUAUAUCUC: the self-cleavage amounted to 0.06.

For the variant UAACAGGGGGGCACAGCAGGAGCGUUCACGUCGCGGCCCCCGUCAGAUUCUGGUGAACAUGCGAAUUCUGCUGUAUAUCUC, the self-cleavage is 0.05.

Regarding UAACAGGGGGGCACAGCAGGAGCGUCCACGCCGCAGCCCCUGUCUGAUUCUGGUGAAUCUGCGAAUUCUGCUGUAUAUCUC, the self-cleavage worked out at 0.32.

Consider UAACAGGGGGGCACCGCAGAGGCGUUCACGUCGCAGCCCCUGUCAGAUUCUGGUGAAUCUGCGAAUUCUGCUGUAUAUCUC, for which the self-cleavage is 0.39.

On to UAACAGGGGGGCACAGCAGAGGCGUUCACGUCGCAGCCCCAGUCAGAUUCUGGUGAAUCUGUGAAUUCUGCUGUAUAUCUC, for which the self-cleavage stood at 0.28.

Turning to UAACAGGGGGGCACAGCUGAAGCCUUCACGUCGCAGCCCCUGUCAGAUUCUGGUGAAUCCGCGAAUUCUGCUGUACAUCUC, the self-cleavage was 0.02.

For the variant UAACAGGGGGGCACAGCGGAAGCGUUCACGUCACAGCCCCUGUCAGAUCCUGGUGAAUCUGCGAAUUCUGCCGUAUAUCUC, the self-cleavage was 0.05.

With UAACAGGGGGGCACAGCAGAAGCGUUCCCGUCGCAGCCCCUGUCAGAUUCUGGUGAAUCUGCGAAUUCUGCUGUAUGUCUC, the self-cleavage is 0.13.

For UAACAGGGGGGCACGGCAGAAGCGUCCACGUCGCAGCCCCUGUCAGAUUCUGGUGAAUCUGCGAAUUCUGCUGUAUACCUC, the self-cleavage worked out at 0.41.

As to UAACAGGGGGGCACAGCAGAGGCGUUCACGUCGCAGCCCCUGUCAGAUUCUGGGGAAUCUGCGAAUUCUGCUGUAUAUCUC, the self-cleavage turned out to be 0.39.

As to UAACAGGGGGGCACAGCAGAGGCGUUCUCGUCGCAGCCCCUGUCAGAUUCUGGUGAAUCUGCGAAUUCUGCUGUAUAGCUC, the self-cleavage is 0.35.

Turning to UAACAGGGGGGCUCAGCAGGAGCAUUCACGUCGCAGCCCCCGUCAGAUUCUGGUGAAUCUGCGAGUUCUGCUGUAUAUCUC, the self-cleavage came out at 0.07.

As for UAACAGGGGGGCACAGCAGGAGCGUUCACGUCGCAGCCACCGUCAGAUUCUGGUGAGUCUGCGGAUUCUGCUGUAUACCUC, the self-cleavage came to 0.04.

Turning to UAACAGGGGGGCACAGCAGAAGCGUUCACGUCGCAGCCCCUGUCAGGUUCUGGUGAAUCUGCGAAUUCUGCCGCAUAUCCC, the self-cleavage was 0.88.

Consider UAACAGGGGGGCUCAGCAGAAGCGCUCGCGUCGCAGCCCCUGUCAGAUCCUGGUGAAUCUGCGAAUUCUGCUGUAUAUCUC, for which the self-cleavage worked out at 0.05.

For the variant UAACAGGGGGGCACAGCAGAAGCGUUCACGUCGCUGCCCCUGUCAGGUUCUGGUGAAUCUGCGAAUUCUGCUGUAUAUCUC, the self-cleavage amounted to 0.49.

As to UAACAGGGGGGCACAGCAGAAGCGUUCGCGUCGCAGCCCCUGUCAGAUUCUGGCGAAUCUGCGAAUUCUGCCGUAUAUCUC, the self-cleavage was determined as 0.09.

For the variant UAACAGGGGGGCACAGCAGUAGCGUCCACGUCGCAGCCCCUGUCAGAUUCUGGUGAAUCUGCGAACUCUGCUGCAUAUCUC, the self-cleavage is 0.27.

UAACAGGGGGGCACAGCGGAAGAGUUCACGUCGCAGCCCCUGUCAGAUACUGGUGGAUCUGCGAAUUAUGCUGUAUAUCUC: the self-cleavage came out at 0.13.

As for UAACAGGGGGGCACAGCAGAAGCGUUCUCGCCGCAGCCCCCGUCAGAUUCUGGUGAAUCCGCGAAUUCAGCUGUGUAUCUC, the self-cleavage amounted to 0.11.

In the case of UAACAGGGGGGCACUGCAGAAGCGUUCACGUCGCAGCCCCAGUCAGAUUCUGGUGAAUCUGCGAAUUCUGCUGCAUAUCUC, the self-cleavage turned out to be 0.8.

Consider UAACAGGGGGGCACAGCAGUAGCGUUCGCGUCGCAGCCCCCGACAGAUUCUGGCGAAUCUGCGAAUUCUGCUGUAUAUCUC, for which the self-cleavage amounted to 0.05.

As for UAACAGGGGGGCACGGCAGUAGCGUCCACGUCGCAGCCCCUGUCAGAUUCUGGUGAAUCUGCGAACUCUGCUGUAUAUCUC, the self-cleavage worked out at 0.12.

Source of the values: the RNAGym collection of RNA variant scans (doi:10.1093/nar/gkz1192).
